± gives the standard deviation of the averaged measurements. The list shows a part of the results.
system: PfAP2-LT AP2 domain (GST-tagged); assay: gcPBM binding intensity (ln(normalized median fluorescence intensity)); higher = stronger DNA binding
Summary of the method: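 Probes on an Agilent 4 × 180k array were primer-extended, double-stranded and 36 bp long, taken from intergenic genomic regions, with negative controls added. GST-tagged P. falciparum DNA-binding domains from E. coli, about 25 μg on average, were applied to the array for 1 h in 1× PBS containing 1% milk, 0.2 mg/ml BSA, 0.5% salmon testes DNA and 0.03% Triton X-100. Binding intensity, obtained after Alexa488 anti-GST antibody detection and a 488 nm scan, is the highest Masliner-normalised natural-log median intensity across replicate spots of either probe orientation.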

Sequence	gcPBM binding intensity (ln)
TATATATATTTATAATGTACACATATATGTAAATAT [XGTACX_site3695]	8.71 ± 0.4
TATTTATAAATATGTGTGCACAATTTATTTTATAAT	8.88 ± 0.39
TTTTTTTTATATATCTGTACATATATATATATATAT [XGTACX_site8280]	9.07 ± 0.32
TTATTTCTAACATGATGTACTTTTATATTATATAAT [XGTACX_site3574]	8.73 ± 0.51
TATTTTCAAAATGTTGTACACACAAAAAAAAAAAAA [CACACA_site8437]	8.8 ± 0.54
ATATACTTTTCAATGTGTACTTATGAATATATATGT [XGTACX_site7972]	8.81 ± 0.47
ATATATATATATATATGTACATACATATTGTTTGGT [XGTACX_site2284]	10 ± 0.4
ATATAATAATATGGTTGTACATAAATAACACATGAA [XGTACX_site6592]	8.95 ± 0.38
CAAAATATTTTTTCCTGTACATAATTCCTATTTCAC [XGTACX_site3590]	8.71 ± 0.43
ATGATTATACAAAATATACACACGTGTAGACAAATA [CACACA_site1175]	9.27 ± 0.28
TAATAATAGAAACACACACACATAGACATATATATA [CACACA_site1307]	9.85 ± 0.14
CACTTAAAAAGCTAACGTACAAATACACATATATAA [XGTACX_site1851]	8.81 ± 0.4
AATATATATATAAATAATATACCTATATATTTTTTG [XGTACX_negctrl_site407]	8.51 ± 0.44
AAAAACAATTTAATCACACATATATGTCACAAAGAT [CACACA_site5043]	8.98 ± 0.48
ATATTAAATATTATCACACACATAATTATTTCCATA [CACACA_site2334]	9 ± 0.48
TAATAAATTCATAATTGTACATTGAAGTATTATGCA [XGTACX_site5121]	8.58 ± 0.38
TTTTTTTATTTTGTATGTACATATCATTTGATATTC [XGTACX_site8449]	8.98 ± 0.43
TATATATATAACAGAATGCACTTTATATGTTCATAT [GTGCAC_site9880]	8.8 ± 0.37
TATACGTATACCTATACACACATATATTTATTTATA [CACACA_site6716]	8.98 ± 0.3
AAAAAATACAGACACACACACACACGCATATAAATA [CACACA_site7644]	10.1 ± 0.25
GATATCCTTATATTTGCACACACACCCAATAAAATG [CACACA_site1028]	9.7 ± 0.17
ATTATTACTATATGTGTACACATCAACTGGTTTGAT [CACACA_site5563]	9.38 ± 0.47

Sequence	gcPBM binding intensity (ln)
AGTAGCGGCGGTATCATGCACACGTATAGATTGTAA [CACACA_site1587]	9.26 ± 0.47
CCACGTATACGATGCACACGTATGCTTTATATATAG [CACACA_site4108]	9.01 ± 0.31
TTGTTTATATATATATGTACATATTTTAAGGCATCC [XGTACX_site6976]	8.76 ± 0.47
GTTGAAAAAAATATATGTACGTATATATGTATGTAT [XGTACX_site8201]	8.96 ± 0.43
ATTAAATCCGCACGCACACACACATATTAAGAAAAA [CACACA_site6062]	9.54 ± 0.3
TAATTATTTTTATATTGTACAATATGTAAATATATA [XGTACX_site592]	8.45 ± 0.33
TTTTTTGAATTTAAAAGTACAGGCTTTTACCAAATA [XGTACX_site1356]	8.12 ± 0.46
ATAAATAAATAAATCTGTACATATGTATATGTATAT [XGTACX_site4537]	8.87 ± 0.46
AATTAAAAAAAAAAAAAAAAAAAAAAATGAAAAAAA [CACACA_negctrl_site1073]	8.4 ± 0.54
AAAAAAAAAAAAAAAAGTACATACAACATTATGAAA [XGTACX_site207]	8.63 ± 0.48
ACTTAATTTTTTTTATGTACTTATTTAAAAAATTTT [XGTACX_site2712]	8.64 ± 0.28
CTTAAAGGGAAAAATACACACATATAAATATTATGT [CACACA_site2225]	8.96 ± 0.44
TTAGTAGTATTATGTAGTACATAATTATCATATCAT [XGTACX_site817]	8.69 ± 0.47
TTTGTGTATATAACAGTGCAATATTATAAATATAAA [GTGCAC_site9750]	8.72 ± 0.4
ATAATCCTTGGACACACACACACACTAGTAAATAAA [CACACA_site4423]	9.99 ± 0.3
AACCCAAAATAATTATGTACATATTTTTAAATATAT [XGTACX_site6487]	8.69 ± 0.37
GCAAAGCACAAATATGCATGTAGATATAGAATAATG [TGCATGCA_site382]	8.9 ± 0.38
AAAAAAGAAAAAAAGTGTACAATATTTATTACATAT [XGTACX_site2277]	8.71 ± 0.53
TTTTTTCTTTTTATGTGTACTTATTTTATTTAATAA [XGTACX_site1080]	8.69 ± 0.56
TATATTTCATTATATTGTACAAAATATATATATTAT [XGTACX_site4644]	8.66 ± 0.45
CATTATATATATTACTAAAAATTTTACCCCTTAGCT [CACACA_negctrl_site302]	8.61 ± 0.41
ATACATGAATAAATATGTACACATATAAAAACATAT [XGTACX_site2740]	9.12 ± 0.37

Source: the supplement of paper PMC11417369
